The text below walks through data of patent publication US20250163186A1 (PHYLAXIS BIOSCIENCE, published 2025).

Read-outs that look alike come from different tables or passages of the source.

The target in experiment [1] is T1, human IgE (human, UniProt P01854 1-428).
T1 construct: written under the same molecule; also called IgE (Abcam ab65866); soluble IgE
Kind of experiment: flow cytometry, blocks binding of 5 nM IgE to FCER1A on human mast cells.

In experiment [2] the target is T1, human IgE. Description: SPR (Biacore T200, 37 C), IgE medium density (~114 RU) on protein L, 1:1 fit. Here is the method: (§1) All experiments were done using a Biacore T200 instrument with a CM5 chip at 37° C. except immobilization of Protein L, which was done at 25° C.
T1 sequence (P01854 other isoform, or with tags, fused parts or gaps limits assumed, form in doubt): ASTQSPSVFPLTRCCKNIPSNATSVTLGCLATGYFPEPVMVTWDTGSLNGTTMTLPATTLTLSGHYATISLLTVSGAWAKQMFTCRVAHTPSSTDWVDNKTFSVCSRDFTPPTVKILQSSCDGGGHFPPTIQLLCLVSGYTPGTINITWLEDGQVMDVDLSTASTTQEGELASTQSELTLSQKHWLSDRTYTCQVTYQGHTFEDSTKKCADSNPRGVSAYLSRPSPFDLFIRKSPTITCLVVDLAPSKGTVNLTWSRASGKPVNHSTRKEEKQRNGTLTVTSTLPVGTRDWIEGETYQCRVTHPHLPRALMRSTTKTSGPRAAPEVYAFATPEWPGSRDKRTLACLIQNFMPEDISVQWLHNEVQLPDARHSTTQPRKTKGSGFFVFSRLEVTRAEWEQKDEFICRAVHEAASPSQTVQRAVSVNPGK
(§2) For this study Flow Cell (FC) 1 was used as the reference for FC2, FC3 and FC4. Protein L (15 mg/ml stock concentration) was diluted (1:50 dilution, 0.3 mg/ml diluted concentration) in 10 mM sodium acetate buffer at pH 4.5 and immobilized onto all FCs to a level of ˜14000 RU, using the standard amine coupling chemistry. HBS-P (10 mM Hepes, pH 7.4, 150 mM NaCl, 0.05% v/v surfactant P20) was used as the immobilization running buffer. […] HBS-P was used as the capture running buffer. Overnight kinetics were performed for all analytes in the presence of HBS-P. The flow rate of all analyte solutions was maintained at 50 μL/min. The contact and dissociation times used were 120 seconds and 600 seconds, respectively. Glycine pH 1.5 was injected for 20 seconds for surface regeneration. This regeneration condition takes away all captured ligand. Therefore, fresh ligand solution was captured in the beginning of each injection cycle. Injected analyte concentrations are from 80 nM to 0.01953 nM (four-fold dilutions). All analytes were injected in duplicate.
A general note: In SPR one partner is held on a chip, and binding of the other changes the refractive index at the surface.

The target in experiment [3] is T1, human IgE. Kind of experiment: ELISA, human IgE coated. On the procedure:
(§3) The following day, plates were blocked with 1% BSA in PBS for 30 min-1 hour. […] Afterwards, the plates were PBST washed with the plate washer and detected with Peroxidase AffiniPure Donkey Anti-Human IgG, Fcγ fragment specific secondary detection antibody. Room temperature TMB was added and OD650 was measured using the Emax plate reader. […] Room temperature TMB was added and OD650 was measured using the Emax plate reader. The data was plotted and analyzed using GraphPad Prism analysis software.
(ELISA stands for enzyme-linked immunosorbent assay.)

Experiment [4] addresses T1, human IgE. Kind of experiment: SPR (Biacore T200, 37 C), IgE low density (~14 RU) on protein L, 1:1 fit. On the procedure:
as §1, §2

The target of experiment [5] is T1, human IgE. Description: ELISA, human IgE coated. The source holds these as a separate data set.
For experiment [6], the target named is recombinant human anti-hapten dinitrophenol (DNP) IgE (rhIgE) (human, UniProt P01854-1 1-428). Kind of experiment: cell-based or functional assay.
The target of experiment [7] is T1, human IgE. Kind of experiment: SPR, blocks binding of 5 nM IgE to captured FCER1A. On the procedure:
as §1
Sensorgrams from the overnight kinetics were plotted for further evaluation.

The target of experiment [8] is T1, human IgE. Description: ELISA, blocks binding of 5 nM IgE to coated FCER2/CD23. Here is the method: as §3
The target in experiment [9] is T1, human IgE. Description: ELISA, blocks binding of 5 nM IgE to coated FCER1A.
In experiment [10] the target is T1, human IgE. Kind of experiment: SPR (Biacore T200, 37 C), IgE high density (~1400 RU) on protein L, 1:1 fit. Here is the method: as §1, §2
The target in experiment [11] is T1, human IgE. Kind of experiment: ELISA, blocks binding of 5 nM IgE to coated FCER1A. On the procedure: as §3
This is another data set of the same source.

Experiment [12] has as its target T1, human IgE. Description: SPR, blocks binding of 5 nM IgE to captured FCER1A. Here is the method:
(§4) All experiments were done using a Biacore T200 instrument with a CM5 chip at 25° C., Flow Cell (FC) 1 was used as the reference for FC2, and FC3 for FC4.
Anti-His antibody (1 mg/ml stock) was diluted (1:100 dilution, 0.01 mg/ml diluted concentration) in 10 mM sodium acetate buffer at pH 4.5 and immobilized onto FCs 1 and 2 to a level of ˜14000 RU, using the standard amine coupling chemistry. […] FCER1A (0.4 mg/ml stock concentration) was diluted ([…], ˜0.004 mg/ml diluted concentration) in PBS-P captured onto FC2 to levels of ˜130 RU. PBS-P was used as the capture running buffer. Overnight kinetics were performed for all analytes in the presence of PBS-P. The flow rate of all analyte solutions was maintained at 50 μL/min. The contact and dissociation times used were 120 seconds and 300 seconds, respectively. Glycine pH 1.5 was injected for 20 seconds for surface regeneration. This regeneration condition takes away all captured FCER1A. Therefore, fresh FCER1A was captured in the beginning of each injection cycle. […] All analytes were injected in duplicate. […] Sensorgrams from the overnight kinetics were plotted for further evaluation.
The source holds these as a separate data set.

In experiment [13] the target is T1, human IgE. Description: ELISA, blocks binding of 5 nM IgE to coated FCER1A. Here is the method:
as §3
This is another data set of the same source.

Experiment [14] concerns the target T1, human IgE. Kind of experiment: ELISA, plate-coated IgE.
Experiment [15] addresses T2, chimeric cynomolgus monkey IgE (cynomolgus monkey (Macaca fascicularis)).
T2 construct: domain: CH1-4 constant domains; Generated in house in place of commercial cynomolgus IgE; also called cyno IgE
Kind of experiment: ELISA, plate-coated cynomolgus IgE, apparent Kd (one site fit).

Experiment [16] concerns the target T1, human IgE. Description: ELISA, plate-coated IgE, apparent Kd (one site fit). An excerpt: The data was plotted and analyzed using GraphPad Prism analysis software.
In experiment [17] the target is T3, Human IgD (AbCam, Cat. No. Ab91022) (human, UniProt P01880-1 1-384).
T3 sequence (looked up): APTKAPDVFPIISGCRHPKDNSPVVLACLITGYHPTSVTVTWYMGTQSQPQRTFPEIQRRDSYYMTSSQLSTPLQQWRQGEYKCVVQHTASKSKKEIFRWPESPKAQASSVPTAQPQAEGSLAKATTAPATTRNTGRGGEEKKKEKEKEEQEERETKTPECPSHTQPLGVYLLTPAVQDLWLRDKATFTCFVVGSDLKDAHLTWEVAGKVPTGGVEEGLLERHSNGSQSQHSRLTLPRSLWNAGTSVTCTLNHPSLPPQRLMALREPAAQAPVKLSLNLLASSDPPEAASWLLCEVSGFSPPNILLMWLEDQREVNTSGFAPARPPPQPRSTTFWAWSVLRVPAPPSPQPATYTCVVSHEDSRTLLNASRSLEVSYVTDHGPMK
Kind of experiment: ELISA, human IgD coated.

For experiment [18], the target named is T1, human IgE. Description: ELISA, plate-coated IgE. The source holds these as a separate data set.
Experiment [19] addresses T1, human IgE. Kind of experiment: SPR (Biacore T200, 25 C), IgE captured on protein L, antibody as analyte, 1:1 fit. Here is the method: as §4
Protein L (15 mg/mL) was diluted (1:50 dilution, 0.3 mg/mL diluted concentration) in 10 mM sodium acetate buffer at pH 4.5 and immobilized onto FCs 1 and 2 to a level of ˜13000 RU, using the standard amine coupling chemistry. […] PBS-P was used as the capture running buffer. Overnight kinetics were performed for all analytes in the presence of PBS-P. The flow rate of all analyte solutions was maintained at 50 μL/min. The contact and dissociation times used were 120 seconds and 600 seconds, respectively. Glycine pH 2.0 was injected for 20 seconds for surface regeneration. This regeneration condition takes away all captured ligand. Therefore, fresh ligand solution was captured in the beginning of each injection cycle. Injected analyte concentrations are from 50 nM to 0.098 nM (two-fold dilutions). All analytes were injected in duplicate. Sensorgrams from the overnight kinetics were evaluated by using 1:1 kinetics model fitting.

Experiment [20] deals with T1, human IgE. Kind of experiment: ELISA, plate-coated IgE, apparent Kd (one site fit). The source holds these as a separate data set.
For experiment [21], the target named is T1, human IgE. Kind of experiment: ELISA, human IgE coated. On the procedure:
as §3
This is another data set of the same source.

The target in experiment [22] is human IgM (Novus, NBP1-97056) (human, UniProt P01871-1 1-453). Description: ELISA, human IgM coated.
Experiment [23] has as its target human IgG2 (Athensresearch, 16-16-090707-2) (human, UniProt P01859-1 1-326 = IgG part). Description: ELISA, human IgG2 coated.

The IC50 is the concentration at which inhibition is half-maximal. For orientation: koff means the first-order rate constant of dissociation. As a reminder, the kon is the rate constant with which the complex forms.

B1: hzB10v40-IgG1 SELF Fc region (cx13054) (Fc fusion)
chain: EVQLLESGGGEVQPGGSLRLSCVASGLTFSSYNMGWLRQAPGKEREFVGLSGSSSTSTYYAESVKGRFTISRDNAKNTVYLQMTSLRAEDTAVYYCAARRLLSTYWSDRSWDFWGQGTLVTVEPGGGG[letters of human IgG1 Fc with changes omitted]
notes: hzB10v40 VHH + GGGG linker + IgG1 SELF Fc; also called hzB10v40-SELF; hzB10v40-IgG SELF Fc
In the case of B1, the concentration for half-maximal inhibition (IC50) in [1] is 0.387 nM; in experiment [7] it was ~3.4 nM; in [8], 4.41 nM; in experiment [9], 3.25 nM; in experiment [11] it was 2.22 nM. Further, the Kd in experiment [2] amounted to 0.6 nM; in [3] it was 0.144 nM; in [4], 0.8 nM; in experiment [5], 0.124 nM; in [10], 1 nM. In addition, the off-rate (koff) stood at 0.000259 s⁻¹ in experiment [2], 0.00044 s⁻¹ in experiment [4] and 0.00025 s⁻¹ in experiment [10]. The on-rate constant (kon) in [2] was determined as 415000 M⁻¹ s⁻¹; in experiment [4], 534000 M⁻¹ s⁻¹; in experiment [10], 253000 M⁻¹ s⁻¹. In [3], this molecule returned a Bmax of 0.946 OD 650. For the same molecule, in experiment [6], the “Activation IC50 (nM), CD63 on mast cells” value is 2.06 nM.

B2: hzB10v40.52-IgG1-SELF (cx13784) (Fc fusion)
chain: EVQLLESGGGEVQPGGSLRLSCVASGLTFSSYNMGWLRQAPGKEREFVGLSGVSSTSTYYAESVKGRFTISRDNAKNTGYLQMNSLRAEDTAVYYCAARRLLSTYWSHRSWDFWGQGTLVTVEPGGGG[letters of human IgG1 Fc with changes omitted]
notes: also called hzB10v40.52-SELF
For B2, the Kd in experiment [5] amounted to 0.127 nM. Moreover, in experiment [9], the IC50 is 3.24 nM.

B3: cx10759 (humanized IgE026-IgG SELF Fc) (Fc fusion)
chain: EVQLLESGGGEVQPGGSLRLSCAASGFTFGNYDMAWVRQAPGKRPEWVSSIDTGGGSTYYAESVKGRFTISRDNAKNTLYLQMSSLRAEDTAVYWCATDEEYALGPNEFDYYGQGTLVTVKPGGGG[letters of human IgG1 Fc with changes omitted]
notes: Humanized IgE026 VHH fused to human IgG1 SELF Fc; comparator; also called 026 VHH based anti-IgE sdAb comparator; 026 based sdAb
Turning to B3, the 50% inhibitory concentration (IC50) in experiment [12] was ~2.2 nM; in experiment [13], 2.92 nM; in experiment [8], 1.52 nM; in experiment [11], 1.72 nM. Also, the “Bmax (OD 650 nm)” value in [14] is 1.05 OD 650 nm; in [18] it was 0.809 OD 650 nm. Moreover, the Kd stood at 0.05 nM in experiment [2]; 0.151 nM in experiment [3]; 0.1 nM in experiment [4]; 0.255 nM in experiment [15]; 0.198 nM in experiment [16]; 0.3 nM in experiment [10]. The figures for the Kd in experiment [19], in [20] and in experiment [21] were 0.1 nM, 0.176 nM and 0.115 nM, respectively. Also, the koff came to 0.000371 s⁻¹ in [2], 0.000384 s⁻¹ in experiment [4], 0.000323 s⁻¹ in [10] and 0.000415 s⁻¹ in experiment [19]. Moreover, the kon in [2] came out at 7.97e+06 M⁻¹ s⁻¹; in [4], 3.74e+06 M⁻¹ s⁻¹; in experiment [10], 1.07e+06 M⁻¹ s⁻¹; in [19], 3.55e+06 M⁻¹ s⁻¹. Besides, the Bmax in [3] came out at 1.17 OD 650; in [21] it was 0.932 OD 650. For the same molecule, the binding result in experiment [17], in experiment [22] and in [23] was “no binding (tested: 250 nM)” throughout.
